# The full ranking holds about 33,000 sequences; the median of “E-score (-0.5 to 0.5)” is about -0.011, and the highest 2% start at about 0.28. Some of the results follow.
# Target: T1, Gcr1 (UniProt P07261)
# T1 sequence: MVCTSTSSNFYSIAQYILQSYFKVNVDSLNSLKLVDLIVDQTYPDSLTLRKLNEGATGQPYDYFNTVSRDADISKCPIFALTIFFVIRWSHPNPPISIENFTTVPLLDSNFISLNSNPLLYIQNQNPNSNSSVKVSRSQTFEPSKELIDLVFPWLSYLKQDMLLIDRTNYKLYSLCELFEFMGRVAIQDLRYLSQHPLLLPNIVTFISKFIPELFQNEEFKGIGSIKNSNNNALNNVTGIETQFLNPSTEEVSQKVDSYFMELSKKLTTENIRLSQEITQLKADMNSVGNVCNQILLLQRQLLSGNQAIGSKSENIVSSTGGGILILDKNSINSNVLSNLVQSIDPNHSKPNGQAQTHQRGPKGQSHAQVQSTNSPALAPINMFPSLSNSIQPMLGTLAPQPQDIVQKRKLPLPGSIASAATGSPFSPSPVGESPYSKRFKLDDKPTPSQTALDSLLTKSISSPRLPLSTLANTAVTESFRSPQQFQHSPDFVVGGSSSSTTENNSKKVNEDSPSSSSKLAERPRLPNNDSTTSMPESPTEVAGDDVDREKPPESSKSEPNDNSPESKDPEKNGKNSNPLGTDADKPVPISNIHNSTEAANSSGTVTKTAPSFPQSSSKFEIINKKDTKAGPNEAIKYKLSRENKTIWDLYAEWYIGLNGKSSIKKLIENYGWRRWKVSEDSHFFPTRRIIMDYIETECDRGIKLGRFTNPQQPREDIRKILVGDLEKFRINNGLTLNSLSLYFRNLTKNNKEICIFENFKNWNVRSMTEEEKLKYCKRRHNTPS
# Assay: PBM E-score (8-mer binding enrichment) (E-score (-0.5 to 0.5)); higher = stronger / more preferred TF binding; most listed sequences are background and not binding sites
# Conditions: protein concentration: 100 nM; construct: GST-full length
# Summary of the method: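 Yeast transcription factors, full-length or as DNA-binding domains, were expressed with a GST tag using PURExpress in vitro transcription/translation. At about 100-200 nM they were applied to universal all-10-mer Agilent arrays, double-stranded by primer extension on fresh or once-stripped slides. Fluorescent anti-GST detected bound protein, and masliner normalised the scans. E-scores for ungapped eight-base words, pooled with reverse complements, came from the Universal PBM Analysis Suite.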
row,Sequence,PBM E-score
1,TGTAACAA,0.231
2,CAGGTGGA,-0.0941
3,AATATCAC,-0.0571
4,AAGTCAAC,-0.0231
5,CAGCGACC,0.0247
6,AGTTCTCG,-0.229
7,ATTTGCTG,0.0999
8,TCGCCAAA,0.101
9,CCTCATTA,0.1
10,AATCCTTG,-0.032
11,GGAGGCGA,-0.0288
12,AGCTGAGC,-0.162
13,CTGCGATC,-0.00692
14,AAAGGCAT,-0.192
15,CAAGCGGA,-0.137
16,CCTTGCTA,-0.124
17,GAGCCCCC,0.0093
18,ATCTTAAA,0.175
19,ATACTTCA,-0.161
20,ATCCCCGA,0.0266
21,CAATAAGA,0.0471
22,ACGGCTCT,-0.00284
23,CACCCCTC,-0.0319
24,AGAAGAGG,0.188
25,ATAACTAC,0.0414

row,Sequence,PBM E-score
1,ACCCGTGC,-0.189
2,CATAGTCA,-0.135
3,CCTGCAGG,-0.0642
4,CAAGATTG,0.124
5,GTTTATAA,0.129
6,CGACCTAA,0.159
7,CGAGTCTC,-0.161
8,CCCTGGCC,-0.328
9,CTTTATTC,-0.0845
10,GAAGAAAA,-0.0497
11,GCCACCGC,-0.2
12,ATCGGTTA,-0.159
13,CGGCTGCA,0.0568
14,GTTCTACA,0.0726
15,AGAAACCA,0.193
16,GGGGAAAA,-0.214
17,ATCCTAGC,0.0076
18,AGATCGCC,-0.147
19,CAGAACGA,-0.0449
20,CATAGGAC,0.0126
21,ATTGCAGC,0.141
22,ACAGCGGG,-0.061
23,ACTTGCAT,0.0333
24,GCTACGTA,0.101
25,ATGCCTGG,-0.00807

row,Sequence,PBM E-score
1,ACCTAAAC,0.217
2,CCCATACA,0.0223
3,AGCGTCAT,0.1
4,CAAAGCGG,0.0601
5,CACTATGG,-0.199
6,CAATCCAG,0.0522
7,CTTTACGC,-0.0395
8,GACTCGTA,-0.149
9,ACACATAG,-0.021
10,AGAGTGTG,-0.00779
11,ACAGTTAG,0.00922
12,CGTTAACG,-0.337
13,TGCCGTAA,-0.0522
14,CAAGAACC,0.13
15,GAAGGCGC,0.16
16,ATAATTCA,0.102
17,GAGCCTAA,-0.0571
18,AGCTATTA,-0.103
19,CCGTTCCA,-0.105
20,TCTGACAA,0.00319
21,CGCAACTA,0.258
22,TCGGTCAA,-0.214
23,CGTCGCTA,-0.109
24,CGCCTTGA,0.0466
25,ATCGAGAT,-0.102

row,Sequence,PBM E-score
1,GCACTCCC,-0.0571
2,CCGACCTA,0.0158
3,GAAACTGA,0.0446
4,AAAGACCG,-0.0645
5,AAAGTTCT,-0.173
6,ACGGCGAT,-0.0312
7,CACTACAA,0.0296
8,ACGCGACG,0.111
9,AATTTAGC,-0.00571
10,CAAATCTG,0.158
11,CTCCCCGA,-0.0766
12,AAACTTCA,0.101
13,ACATAAGT,-0.0903
14,GATTAAGC,0.0627
15,AATAGCGT,0.101
16,GAATGACA,-0.145
17,TCCGAGAA,0.112
18,CCATAAAC,-0.00406
19,GTAAGCGA,-0.159
20,CGAGCTCA,-0.0326
21,CAGGTAAG,0.0277
22,AGGCGGTA,-0.111
23,CTGCAGGA,0.205
24,CATACACG,0.0935
25,AGGTCGAA,-0.109

row,Sequence,PBM E-score
1,CGACCCGA,-0.151
2,AAGAATGT,0.0927
3,CCAGGCGG,0.122
4,AGACGCGC,0.289
5,GGTCCCAC,0.11
6,GGGTGGCA,-0.112
7,CCCTTTCA,0.0273
8,GTGGCCTA,-0.202
9,GGTTACGA,0.045
10,ATGGGGTG,0.0664
11,CAGCGAAA,0.124
12,ATTAAGGC,-0.0607
13,CACTTTAC,0.117
14,AGGACGCC,0.453
15,CTAATCAA,0.141
16,CGTCTAAC,0.138
17,CCGTATCA,0.0711
18,ATGAATCA,-0.165
19,GACAAGTC,-0.145
20,ATAACGGG,0.0248
21,TTGATAAA,-0.0458
22,ATTACAAG,0.142
23,CACGGGGA,-0.0961
24,CTCTTCCA,-0.0725
25,ACATTATA,0.111

row,Sequence,PBM E-score
1,GCTAATAC,-0.0825
2,AGTACGGG,-0.0604
3,TAAGCTAA,-0.153
4,CTTTCGGC,-0.0722
5,CCTTCGTA,0.00994
6,CACATCTG,-0.0906
7,AATCGCAA,0.0343
8,CTGTTTAA,0.219
9,ATACCGGC,0.129
10,GAGAGGCA,0.0587
11,AGGCACCG,0.04
12,CCACACCA,-0.0013
13,CGTGGCAA,-0.0859
14,TCATTTAA,0.0582
15,CGATAGTC,-0.179
16,AGAACTCT,-0.27
17,GTACCGAC,-0.168
18,TCTGGTAA,0.246
19,ATGGATAC,0.106
20,AAACAAAG,0.0917
21,AAGTAAAC,-0.0274
22,GTCGCCAC,0.189
23,CATATAGC,0.132
24,GCGTAACC,-0.0742
25,ATGGTTAC,0.0776

row,Sequence,PBM E-score
1,CGCCACCA,0.00609
2,CAGAATCC,0.161
3,CCGTTGAA,-0.173
4,ACGAGTGC,-0.138
5,ACTAAACC,-0.121
6,CCCACCTA,-0.0634
7,TATAACGA,-0.179
8,ATCGGCTA,0.184
9,GAGTGACC,0.068
10,GGCAATTA,0.0611
11,CGACTTAC,0.117
12,GGATTGGA,0.171
13,ACAGTAAA,0.0252
14,AAGGGCAG,-0.0882
15,ATCGATGC,0.0471
16,CCCGTCAC,-0.00942
17,ATGAGGAG,-0.0645
18,AGAAGCCA,0.362
19,AATCACGG,-0.081
20,GATCTTCC,0.109
21,AGTATCAC,-0.0564
22,TTCACCAA,0.133
